About 450 (0.94%) of roughly 48,000 compounds were called active. Inconclusive results (about 19%) are left out. Calls come from the whole dose curve; as a rule, active = well fitted inhibition curve with a large enough effect; inconclusive = small, poorly fitted or top-dose-only effect; inactive = no such curve, though single readings can be large or run the other way. This is one part of the list.
Assay: Primary qHTS for Identification of Small Molecule Inhibitors of Huntingtin Promoter Activity; note: nearly all actives have a fitted effect of over 50% in size
Conditions: HEK293 HTT promoter firefly luciferase reporter (activity 0% = vehicle and -100% = no light), 24 h; series mostly up to 57.5 µM; activity change, negative = inhibition: at the top concentration
Procedure, shortened: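 HEK293 luciferase promoter-reporter cells (2,500/well) plated 24 h, then compounds added at up to 57.5 uM final for 24 h at 37 °C. Firefly luminescence by Dual-Glo, normalized to vehicle (0%) and zero RLU (-100%).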
For `CCOC(=O)c1cccc(NC(=O)NCCc2c(C)nn(C)c2C)c1`, the “activity change, negative = inhibition” value was inactive: 2.67%.
With `COC(=O)c1cc2occc2n1CC(=O)Nc1cccc(SC)c1` the “activity change, negative = inhibition” value was inactive: -18%.
In the case of `CC(=O)NCCCCCC(=O)O`, the “activity change, negative = inhibition” value is reported as inactive: 5.38%.
In the case of `CCn1c(=N)c(C(=O)NCc2cccnc2)cc2c(=O)n3cc(C)ccc3nc21`, the “activity change, negative = inhibition” value is reported as inactive: -5.7%.
With `COc1ccc(-c2nc(CSCC(=O)NCCc3ccc(C)cc3)c(C)o2)cc1OC` the “activity change, negative = inhibition” value was inactive: -26.5%.
For `COc1ccccc1Cc1nc2ccccc2nc1SCC(=O)NCCc1ccccc1`, the “activity change, negative = inhibition” value was inactive: -12.2%.
With `CCN(CC)CCCNC(=O)c1c(C)oc2ncnc(N3CCOCC3)c12` the “activity change, negative = inhibition” value was inactive: -2.2%.
For `CCS(=O)(=O)c1ccccc1C(=O)N(Cc1cccnc1)c1nc2cc(C)c(C)cc2s1`, the “activity change, negative = inhibition” value was inactive: 26%.
For `CCc1noc2nc(C)n(CC(=O)O)c(=O)c12`, the “activity change, negative = inhibition” value was inactive: -16.8%.
In the case of `CCOC(=O)Cn1cc2c(c1-c1ccc(Cl)cc1)c(=O)n(C)c(=O)n2C`, the “activity change, negative = inhibition” value is reported as inactive: -3.21%.
In the case of `CN(C(=O)CSc1nc2ccccc2n1CC(=O)NCc1ccc(F)cc1)c1ccc(F)cc1`, the “activity change, negative = inhibition” value is reported as inactive: -24.5%.
With `Cc1c(C(=O)NCc2ccc(Cl)cc2)sc2nc3n(c(=O)c12)CCCC3` the “activity change, negative = inhibition” value was inactive: -6.01%.
For `O=c1n(CCCN2CCN(c3cccc(Cl)c3)CC2)nc2ccccn12`, the activity change, negative = inhibition was “inactive”.
For `Cc1cccc(-n2c(=O)c3c(c4cc(C)ccc4n3C)n(CC(=O)Nc3ccccc3C(F)(F)F)c2=O)c1`, the “activity change, negative = inhibition” value was inactive: -12.9%.
For `c1ccc(C(c2cccs2)c2c[nH]c3ccccc23)cc1` (configuration not stated), the “activity change, negative = inhibition” value was inactive: -29.8%.
With `Cc1ccc(-c2noc(CN(C3CCCCC3)S(=O)(=O)c3ccc(Cl)cc3)n2)cc1` the “activity change, negative = inhibition” value was inactive: -1.79%.
In the case of `Cc1ccc(CNc2ncnc3c2c(-c2ccccc2)cn3-c2cccc(Cl)c2)cc1`, the “activity change, negative = inhibition” value is reported as inactive: -18%.
With `COc1ccc(-c2nc3n(n2)C(c2ccccc2F)C(C(=O)Nc2cccnc2)=C(C)N3)cc1OC` (configuration not stated) the “activity change, negative = inhibition” value was inactive: -4.53%.
In the case of `CCCCN(C(=O)c1cccc(S(=O)(=O)N2CCCCC2)c1)C1CCS(=O)(=O)C1` (configuration not stated), the “activity change, negative = inhibition” value is reported as inactive: -19.7%.
For `COCCCNC(=O)c1sc2ncccc2c1-n1cccc1`, the “activity change, negative = inhibition” value was inactive: 13%.
For `O=C(Nc1ccc(F)c(Cl)c1)N1CCN2CCCCC2C1` (configuration not stated), the “activity change, negative = inhibition” value was inactive: -2.79%.
With `CCN(CC)c1ccc(-c2nc(-c3ccncc3)no2)cc1[N+](=O)[O-]` the “activity change, negative = inhibition” value was inactive: 11.8%.
For `Cc1ccc2cccc(NC(=O)c3cccc4ccccc34)c2n1`, the “activity change, negative = inhibition” value was inactive: -27.1%.
For `O[C@@H](CNC[C@H](O)[C@H]1CCc2cc(F)ccc2O1)[C@@H]1CCc2cc(F)ccc2O1`, the activity change, negative = inhibition was “inactive”.
For `CCN1C(=O)c2cccc3c(S(=O)(=O)Nc4ccc(O)c(C(=O)O)c4)ccc1c23`, the “activity change, negative = inhibition” value was inactive: -0.285%.
With `CC(C)(C)OC(=O)N1CCC(c2c(C(=O)N3CCc4ccccc4C3)cnn2-c2ccc(Cl)cc2)CC1` the “activity change, negative = inhibition” value was inactive: -18.4%.
With `CCOc1ccccc1C(=O)N(Cc1ccc(N(C)C)cc1)CC1CCCO1` (configuration not stated) the “activity change, negative = inhibition” value was inactive: 5.23%.
For `CCS(=O)(=O)Nc1cc(-c2cn3ccc(C)cc3n2)ccc1C`, the “activity change, negative = inhibition” value was inactive: 57.7%.
For `CCCCNC(=O)CSc1nc2cc3c(cc2c(=O)n1CCCC(=O)NCc1ccc2c(c1)OCO2)OCO3`, the “activity change, negative = inhibition” value was inactive: -14.8%.
With `Cc1ccc(Cl)cc1NC(=O)Cn1c(=O)cc(C)c2c(C)nn(C)c21` the “activity change, negative = inhibition” value was inactive: -15.9%.
For `Cc1ccc(CNC(=O)CCNS(=O)(=O)c2ccc3c(c2)oc(=O)n3C)cc1`, the “activity change, negative = inhibition” value was inactive: -11.6%.
For `O=C(COc1ccc(Br)cc1Br)Nc1ccc(S(=O)(=O)Nc2ncccn2)cc1`, the “activity change, negative = inhibition” value was inactive: -14.2%.
For `Cc1oc(-c2cccc(Cl)c2)nc1CN1CCC(C(=O)NC(C)C)CC1`, the “activity change, negative = inhibition” value was inactive: 1.08%.
With `COc1cccc(C2CC(=O)Nc3c2c(=O)n(C)c2nc4ccccc4n32)c1OC` (configuration not stated) the “activity change, negative = inhibition” value was inactive: 0.112%.
With `O=C(CCn1c(=O)c2sccc2n(Cc2ccc(F)cc2)c1=O)NCc1ccc2c(c1)OCO2` the “activity change, negative = inhibition” value was inactive: -2.86%.
In the case of `Cc1ccc(-n2nc3cc(C)c(NC(=O)c4ccc(-c5ccccc5)o4)cc3n2)cc1`, the “activity change, negative = inhibition” value is reported as inactive: 30.5%.
In the case of `Cc1ccc(NC(=O)CC2Oc3ccc(C)cc3NC2=O)c(C)c1` (configuration not stated), the “activity change, negative = inhibition” value is reported as inactive: -18.8%.
For `COc1cccc(Nc2nnc(-c3cc4ccc(O)cc4oc3=O)s2)c1`, the “activity change, negative = inhibition” value was inactive: 5.07%.
For `CCOc1ccc(NC(=O)Cn2c(=O)n(CCc3ccccc3)c(=O)c3c4c(sc32)CCCC4)cc1`, the “activity change, negative = inhibition” value was inactive: -3.52%.
In the case of `CC(=O)c1ccc(NC(=O)Cn2nc(C(F)(F)F)c3c2CCC3)cc1`, the “activity change, negative = inhibition” value is reported as inactive: 9.28%.
In the case of `O=C(Cn1ncc2c3ccccc3n(Cc3ccccc3)c2c1=O)NCc1cccs1`, the “activity change, negative = inhibition” value is reported as inactive: 7.46%.
For `CCOC(=O)C1=C(CN2CCN(c3ccc(Cl)cc3)CC2)NC(=O)NC1c1ccc(OC)cc1` (configuration not stated), the “activity change, negative = inhibition” value was inactive: -20.1%.
For `Cc1ccc(Cl)cc1N1CCN(C(=O)Cn2cnc3onc(-c4ccc(F)cc4)c3c2=O)CC1`, the “activity change, negative = inhibition” value was inactive: -21.4%.
For `CCCCNC(=O)CCC1N=C2c3ccccc3N=C(SCC(=O)NCCc3ccc(OC)c(OC)c3)N2C1=O` (configuration not stated), the “activity change, negative = inhibition” value was inactive: -15.6%.
With `CCN(CC)CCNC(=O)CCn1c(=O)c2cccn2c2cccnc21` the “activity change, negative = inhibition” value was inactive: -3.37%.
For `Cc1ccc2nc(-c3ccc(NC(=O)Cc4ccccc4)cc3)sc2c1`, the “activity change, negative = inhibition” value was inactive: 59.9%.
In the case of `O=C(CSc1nc2ccsc2c(=O)n1Cc1ccc(F)cc1)NCc1ccc(Cl)cc1`, the “activity change, negative = inhibition” value is reported as inactive: -6.92%.
With `CN1c2ccc(Cl)cc2-c2nc(SCC(=O)NCc3ccc(F)cc3)ncc2S1(=O)=O` the “activity change, negative = inhibition” value was inactive: -7.74%.
In the case of `CC1=C(C(=O)Nc2ccc(C)cc2C)C(c2ccccc2)n2nc(SCC(=O)c3ccc(C)cc3)nc2N1` (configuration not stated), the “activity change, negative = inhibition” value is reported as inactive: -2.19%.
For `Cc1cc(Nc2ccc(Br)cc2)n2nc(-c3ccccc3C)nc2n1`, the “activity change, negative = inhibition” value was inactive: -7.85%.
In the case of `CCc1ccccc1NC(=O)CCNS(=O)(=O)c1ccc2c(c1)CCCC(=O)N2`, the “activity change, negative = inhibition” value is reported as inactive: -5.94%.
With `Oc1ccc(-c2nc(-c3ccc(F)cc3)c(-c3ccncc3)[nH]2)cc1` the “activity change, negative = inhibition” value was inactive: -2.91%.
With `CCN1CCN(c2ncc3c(n2)CCN(Cc2cc(Br)cs2)C3)CC1` the “activity change, negative = inhibition” value was inactive: -20%.
For `O=C(NCC(c1ccc2c(c1)OCO2)N1CCOCC1)c1ccccc1` (configuration not stated), the “activity change, negative = inhibition” value was inactive: -16.2%.
With `Cc1c(O)nc(SCC(=O)Nc2ccc(Cl)cc2Cl)n(-c2ccc(F)cc2)c1=O` the “activity change, negative = inhibition” value was inactive: -13.5%.
With `Cc1nn(C)c2c1c(C(F)(F)F)cc(=O)n2CC(=O)NCc1ccc(OC(C)C)cc1` the “activity change, negative = inhibition” value was inactive: -19.5%.
With `CCC(C)c1ccc(OCC(=O)Nc2cccc3ccc(C)nc23)cc1` (configuration not stated) the “activity change, negative = inhibition” value was inactive: -16.9%.
For `Cc1cn(C)c(CC(=O)NCc2cccc(Cl)c2)c1C(=O)O`, the “activity change, negative = inhibition” value was inactive: -12.3%.
For `CC(C)(C)c1ccc(S(=O)(=O)N2CCC(Oc3ccc(-n4cnnn4)cc3)CC2)cc1`, the “activity change, negative = inhibition” value was inactive: 0.667%.
With `O=C(CNC(=O)c1ccc(Cl)cc1)OCc1cc(=O)n2nc(C3CC3)sc2n1` the “activity change, negative = inhibition” value was inactive: -16.1%.
With `CC(C)c1ccc(C2Sc3ccccc3NC3=C2C(=O)c2ccccc23)cc1` (configuration not stated) the Potency was active: 12.6 µM.
For `COC(=O)c1cc(NC(=O)CCc2c(C)nc3c(c(C)nn3C(C)(C)C)c2C)cc(C(=O)OC)c1`, the “activity change, negative = inhibition” value was inactive: 13.7%.

Source: PubChem BioAssay AID1508623 (National Center for Advancing Translational Sciences (NCATS), 2021)
Potency is the fitted concentration of half-maximal effect.
